Test results reported in the RNAGym collection of RNA variant scans (doi:10.1093/nar/gkz1192).
Read counts are not given, so values of variants with three or more changes are uncertain.

B1: CPEB3 Ribozyme (parent)
chain: UAACAGGGGGCCACAGCAGAAGCGUUCACGUCGCAGCCCCUGUCAGAUUCUGGUGAAUCUGCGAAUUCUGCUGUAUAUCUC

Variants of: B1
Test: self-cleavage, relative activity (ratio to wild type); higher = more cleavage; in vitro, sequencing
Method in brief: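 For each CPEB3 ribozyme variant, relative activity is its cleaved/total read fraction divided by the unmutated ribozyme's. Barcoded error-prone PCR libraries were transcribed by T7 RNA polymerase (5 hours, 37°C) and held in DNase I for 15 min before an EDTA stop, with cleavage occurring throughout. Template-switching reverse transcription and Illumina sequencing were used to read the RNAs. A 5-read minimum applied, and results are the mean of three batches.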

Variant	self-cleavage
UAACAGGGGGCCACAGCAGAAGCGUUCACGUCGCAGCCCCUGACUGAUUCUGGUGAAUCUGCGAAUUCUGCCGUAUAUCUC [U43A A45U U72C]	0.63
UAACAGGGGGCCACAGCAGAAGCGUUCACGUCGCAGCCCCUACCAGAUUCUGGUGAAUCCGCGAAUUCUGCUGUAUAUCUC [G42A U43C U60C]	0.09
UAACAGGGGGCCACAGCAGAAGCGUUCACGUCGCAGCCCCGGUCAGGUUCUGGUGAAUCCGCGAAUUCUGCUGUAUAUCUC [U41G A47G U60C]	0.15
UAACAGGGGGCCACAGCAGAAGCGUUCACGUCGCAGCCCCUGACAGACUCUGGGGAAUCUGCGAAUUCUGCUGUAUAUCUC [U43A U48C U54G]	0.38
UAACAGGGGGCCACAGCAGAAGCGUUCACGUCGCAGCCCCUGACGUAUACUGGUGAAUCUGCGAAUUCUGCUGUAUAUCUC [U43A A45G G46U U49A]	0.09
UAACAGGGGGCCACAGCAGAAGCGUUCACGUCGCAGCCCCGGUCAUAUUCUGGUGAAUCUGCGAAUUCUGCAGUAUACCUC [U41G G46U U72A U78C]	0.07
UAACAGGGGGCCACAGCAGAAGCGUUCACGUCGCAGCCCCUAUCGGAUUCUGGUGAAUCUGCGGAAUCUGCUGUAUAUCUC [G42A A45G A64G U66A]	0.13
UAACAGGGGGCCACAGCAGAAGCGUUCACGUCGCAGCCCCUGACGGAUUCUGGUGAAUCUGCGAACUCUGCUGUAUAUCUC [U43A A45G U66C]	0.38
UAACAGGGGGCCACAGCAGAAGCGUUCACGUCGCAGCCCCUACCAGAUUCUGGUGAAUCUGCGAAUACUGCUGUAUAUCUC [G42A U43C U67A]	0.24
UAACAGGGGGCCACAGCAGAAGCGUUCACGUCGCAGCCCCUACCAGAUUCUGGUGAAUCUGCGAAUCCUGCUGUAUAUCUC [G42A U43C U67C]	0.1
UAACAGGGGGCCACAGCAGAAGCGUUCACGUCGCAGCCCCGGUCAGAUUCUGGUGAACCUGCGGAUUCUGCUGUAUAUCUC [U41G U58C A64G]	0.14
UAACAGGGGGCCACAGCAGAAGCGUUCACGUCGCAGCCCCGGUCGGACUCUGGUGGAUCCGCGAAUUCUGCUGUAUAUCUC [U41G A45G U48C A56G U60C]	0.21
UAACAGGGGGCCACAGCAGAAGCGUUCACGUCGCAGCCCCUCACGGAUUCUGGUGAAUCUGCGAAUUCUGCCGUAUAUCUC [G42C U43A A45G U72C]	0.21
UAACAGGGGGCCACAGCAGAAGCGUUCACGUCGCAGCCCCUGACAGAUUCUGGUGAGUCUGCGGACUCUGCUGUAUAUCUC [U43A A57G A64G U66C]	0.24
UAACAGGGGGCCACAGCAGAAGCGUUCACGUCGCAGCCCCUGACAGAAUAUGGUGAAUCUGCGAAUUCUGCUGUAUAUCUC [U43A U48A C50A]	0.37
UAACAGGGGGCCACAGCAGAAGCGUUCACGUCGCAGCCCCCGUCAGAUUCUGGUGAACCUGCGAAUUCCGCUGUACAUCUC [U41C U58C U69C U76C]	0.28
UAACAGGGGGCCACAGCAGAAGCGUUCACGUCGCAGCCCCCGUCAGAUUCUGGUGAAUCAGCGUAUUCUGCUGUAUAUCUC [U41C U60A A64U]	0.26

Variant	self-cleavage
UAACAGGGGGCCACAGCAGAAGCGUUCACGUCGCAGCCCCCGUCAGAUUCUGGUGAAUCAGCGGAUUCUGCUGUAUAUCUC [U41C U60A A64G]	0.44
UAACAGGGGGCCACAGCAGAAGCGUUCACGUCGCAGCCCCUAUCAGAUUCGGGUGAAUCUGCGAAUCCUGCUGUAUAUCUC [G42A U51G U67C]	0.19
UAACAGGGGGCCACAGCAGAAGCGUUCACGUCGCAGCCCCUGACAGGUACUGGUGGAUCUGCGAAUUCUGCUGUAUAUCCC [U43A A47G U49A A56G U80C]	0.31
UAACAGGGGGCCACAGCAGAAGCGUUCACGUCGCAGCCCCUAUCAGAUUCUGGCGAAUCUGCGAAUUUCGCUGUAUAUCUC [G42A U54C C68U U69C]	0.17
UAACAGGGGGCCACAGCAGAAGCGUUCACGUCGCAGCCCCCGUCAGAUUCUGGUGAAUCUGCGAAUGCUGCUGUAUGUCUC [U41C U67G A77G]	0.53
UAACAGGGGGCCACAGCAGAAGCGUUCACGUCGCAGCCCCCGUCAGAUUCUGGUGAAUCUGCGAAUUCUGCAGUAUAUAUC [U41C U72A C79A]	1.13
UAACAGGGGGCCACAGCAGAAGCGUUCACGUCGCAGCCCCCGUCAGAUUCUGGUGAAACUGCGAAUUCUGAUGUAUAUCCC [U41C U58A C71A U80C]	0.15
UAACAGGGGGCCACAGCAGAAGCGUUCACGUCGCAGCCCCUAUCAGAUCCUGGUGGAUCUGCGAAUUCAGCUGUAUAUCUC [G42A U49C A56G U69A]	0.25
UAACAGGGGGCCACAGCAGAAGCGUUCACGUCGCAGCCCCCGUCAGAUUCUGGUGAAUCUGCGAAUUCUGCUGCUUAUCUC [U41C U74C A75U]	1.25
UAACAGGGGGCCACAGCAGAAGCGUUCACGUCGCAGCCCCUGACAGGUUCUGGUGUAUCUGCGAAUCCUACUGUAUACCUC [U43A A47G A56U U67C G70A U78C]	0.25
UAACAGGGGGCCACAGCAGAAGCGUUCACGUCGCAGCCCCUAUCAGAUUCUAGUGCAUCUGCGAAUUCUGCUGUAUAUCUC [G42A G52A A56C]	0.16
UAACAGGGGGCCACAGCAGAAGCGUUCACGUCGCAGCCCCCGUCAGAUUCUGGUGAAUCAGCGAACUCUGCUGUAUAUCUC [U41C U60A U66C]	0.25
UAACAGGGGGCCACAGCAGAAGCGUUCACGUCGCAGCCCCUAUCAGAUUCAGCUGAAUCUGCGAAUUCUGCUGUAUAUCUC [G42A U51A G53C]	0.17
UAACAGGGGGCCACAGCAGAAGCGUUCACGUCGCAGCCCCGGUCAGAUUCAGGUGUAUCUGCGAAUUCUGCUGUAUAUCUC [U41G U51A A56U]	0.36
UAACAGGGGGCCACAGCAGAAGCGUUCACGUCGCAGCCCCUGACGGAUUCCGGUGAAUCUGCGAAUUCUGCUGUAUAUCUC [U43A A45G U51C]	0.93
UAACAGGGGGCCACAGCAGAAGCGUUCACGUCGCAGCCCCCGUCAGAUUCUGGUGAAUCUGCGAAUUCUGCCGUAUAACCC [U41C U72C U78A U80C]	1.21
UAACAGGGGGCCACAGCAGAAGCGUUCACGUCGCAGCCCCCGUCAGAUUCUGGUGAAUCUGCGAAUUCUGCAGUAUAUCGC [U41C U72A U80G]	1.18
